Test results as given in patent US11207320B2, “Compositions and methods for cancer expressing PDE3A or SLFN12” (The Broad Institute, Inc., priority 2015, dated 2021).
Further values from the same series stand in other lists.

Tested on: 766 cancer cell lines
Test: Large-scale cell-line viability measurements (766 cancer cell lines, 72 h, AUC)
Format: cell-based, human
Procedure: Cell lines were treated for 72 hours with concentrations ranging from 66.4 μM-2 nM in 2-fold step dilutions.
To characterize cellular sensitivity to DNMDP further, 766 genomically characterized cancer cell lines were screened for DMNDP sensitivity at concentrations ranging from 66.4 μM to 2 nM in 2-fold dilution steps for 72 hours. From these cell lines, 22 cell lines were categorized as sensitive with a robust Z-score lower than −4, which represented multiple lineages including multiple melanoma cell lines, amongst others (Table 1).
The sensitivity of […] cancer cell lines (CCLs) was measured drawn from 23 different lineages to DNMDP. Each cell line was plated in its preferred media in white opaque 1536-plates at a density of 500 cells/well. After incubating overnight, DNMDP was added by acoustic transfer at 16 concentrations ranging from 66.4 μM-2 nM in 2-fold steps in duplicate (Labcyte Echo 555, Labcyte Inc., Sunnyvale, Calif.). After 72 hours treatment, cellular ATP levels were measured as a surrogate for viability (CELLTITERGLO®, Promega Corporation, Madison, Wis.) according to manufacturer's protocols using a ViewLux Microplate Imager (PerkinElmer, Waltham, Mass.) and normalized to background (media-only) and vehicle (DMSO)-treated control wells.
Concentration response curves were fit using nonlinear fits to 2- or 3-parameter sigmoid functions through all 16 concentrations with the low-concentration asymptote set to the DMSO-normalized value, and an optimal 8-point dose curve spanning the range of compound-sensitivity was identified. The area under the 8-point dose curve (AUC) was computed by numeric integration as a metric for sensitivity for further analysis. Similar sensitivity measurements have been obtained for a collection of 480 other compounds, enabling analyses that identify cell lines responding uniquely to DNMDP (see Broad Institute Cancer Therapeutics Response Portal, a dataset to identify comprehensively relationships between genetic and lineage features of human cancer cell lines and small-molecule sensitivities for complete list of compounds).

[1] = cell line SNU738 (CENTRAL NERVOUS SYSTEM)
[2] = cell line SNU878, LIVER, 72 hours
[3] = cell line SNU886, LIVER, 72 hours
[4] = cell line SNU899 (UPPER AERODIGESTIVE TRACT)
[5] = cell line SNU1033 (LARGE INTESTINE)
[6] = cell line SNU1040, LARGE INTESTINE, 72 hours
[7] = cell line SNU1041 (UPPER AERODIGESTIVE TRACT)
[8] = cell line SNU1066 (UPPER AERODIGESTIVE TRACT)
[9] = cell line SNU1076 (UPPER AERODIGESTIVE TRACT)
[10] = cell line SNU1077 (ENDOMETRIUM)
[11] = cell line SNU1079, BILIARY TRACT, 72 hours
[12] = cell line SNU1105 (CENTRAL NERVOUS SYSTEM)
[13] = cell line SNU1196 (BILIARY TRACT)
[14] = cell line SNUC2A, LARGE INTESTINE, 72 hours
[15] = cell line SNUC4, LARGE INTESTINE, 72 hours
[16] = cell line SNUC5 (LARGE INTESTINE)
[17] = cell line SR786 (HAEMATOPOIETIC AND LYMPHOID TISSUE)
[18] = cell line SUDHL4 (HAEMATOPOIETIC AND LYMPHOID TISSUE)
[19] = cell line SUDHL5, HAEMATOPOIETIC AND LYMPHOID TISSUE, 72 hours
[20] = cell line SUDHL6 (HAEMATOPOIETIC AND LYMPHOID TISSUE)
[21] = cell line SUDHL8 (HAEMATOPOIETIC AND LYMPHOID TISSUE)
[22] = cell line SUDHL10, HAEMATOPOIETIC AND LYMPHOID TISSUE, 72 hours
[23] = cell line SUPHD1 (HAEMATOPOIETIC AND LYMPHOID TISSUE)
[24] = cell line SUPT1, HAEMATOPOIETIC AND LYMPHOID TISSUE, 72 hours
[25] = cell line SUPT11 (HAEMATOPOIETIC AND LYMPHOID TISSUE)
[26] = cell line SW48 (LARGE INTESTINE)
[27] = cell line SW403 (LARGE INTESTINE)
[28] = cell line SW620 (LARGE INTESTINE)
[29] = cell line SW1088 (CENTRAL NERVOUS SYSTEM)
[30] = cell line SW1353, BONE, 72 hours
[31] = cell line T84 (LARGE INTESTINE)

## CCN(CC)c1ccc(C2=NNC(=O)CC2C)cc1[N+](=O)[O-] (centres unmarked) [DNMDP, 6-(4-(diethylamino)-3-nitrophenyl)-5-methyl-4,5-dihydropyridazin-3(2H)-one]
Cell line SNU668 (STOMACH)
  Robust Z-score: 0.3967
Cell line SNU719 (STOMACH)
  DNMDP AUC: 6.9544
  Robust Z-score: 0.3356
[1]
  DNMDP AUC: 6.9945
  Robust Z-score: 0.3777
Cell line SNU840 (OVARY)
  DNMDP AUC: 6.8651
  Robust Z-score: 0.2419
[2]
  DNMDP AUC: 7.2238
  Robust Z-score: 0.6184
[3]
  DNMDP AUC: 7.3032
  Robust Z-score: 0.7017
[4]
  DNMDP AUC: 6.662
  Robust Z-score: 0.02871
[5]
  DNMDP AUC: 6.6873
  Robust Z-score: 0.05526
[6]
  DNMDP AUC: 7.3288
  Robust Z-score: 0.7286
[7]
  DNMDP AUC: 6.6307
  Robust Z-score: −0.004146
[8]
  DNMDP AUC: 6.5779
  Robust Z-score: −0.05957
[9]
  DNMDP AUC: 6.7574
  Robust Z-score: 0.1288
[10]
  DNMDP AUC: 6.6342
  Robust Z-score: −0.0004723
[11]
  DNMDP AUC: 7.2463
  Robust Z-score: 0.642
[12]
  DNMDP AUC: 6.8918
  Robust Z-score: 0.2699
[13]
  DNMDP AUC: 6.5947
  Robust Z-score: −0.04193
[14]
  DNMDP AUC: 7.6165
  Robust Z-score: 1.031
[15]
  DNMDP AUC: 7.2927
  Robust Z-score: 0.6907
[16]
  DNMDP AUC: 6.939
  Robust Z-score: 0.3195
Cell line SQ1 (LUNG)
  DNMDP AUC: 6.6945
  Robust Z-score: 0.06282
[17]
  DNMDP AUC: 6.5751
  Robust Z-score: −0.06251
Cell line SU8686 (PANCREAS)
  DNMDP AUC: 6.8851
  Robust Z-score: 0.2629
[18]
  DNMDP AUC: 7.0162
  Robust Z-score: 0.4005
[19]
  DNMDP AUC: 7.3508
  Robust Z-score: 0.7517
[20]
  DNMDP AUC: 6.887
  Robust Z-score: 0.2649
[21]
  DNMDP AUC: 6.8258
  Robust Z-score: 0.2006
[22]
  DNMDP AUC: 7.7977
  Robust Z-score: 1.221
[23]
  DNMDP AUC: 6.5802
  Robust Z-score: −0.05715
[24]
  DNMDP AUC: 7.167
  Robust Z-score: 0.5588
[25]
  DNMDP AUC: 6.695
  Robust Z-score: 0.06335
[26]
  DNMDP AUC: 6.9505
  Robust Z-score: 0.3315
[27]
  DNMDP AUC: 6.8208
  Robust Z-score: 0.1954
[28]
  DNMDP AUC: 6.5658
  Robust Z-score: −0.07227
[29]
  DNMDP AUC: 7.0786
  Robust Z-score: 0.466
Cell line SW1271 (LUNG)
  DNMDP AUC: 7.0143
  Robust Z-score: 0.3985
[30]
  DNMDP AUC: 7.1985
  Robust Z-score: 0.5918
Cell line SW1573 (LUNG)
  DNMDP AUC: 6.8813
  Robust Z-score: 0.2589
Cell line SW1990 (PANCREAS)
  DNMDP AUC: 6.7019
  Robust Z-score: 0.07059
Cell line T24 (URINARY TRACT)
  DNMDP AUC: 6.8383
  Robust Z-score: 0.2138
Cell line T47D (BREAST)
  DNMDP AUC: 6.5764
  Robust Z-score: −0.06114
[31]
  DNMDP AUC: 6.8791
  Robust Z-score: 0.2566
Cell line TCCPAN2 (PANCREAS)
  DNMDP AUC: 6.9184
  Robust Z-score: 0.2978
